{"source": "PubChem BioAssay AID588342", "about": "(National Center for Advancing Translational Sciences (NCATS), 2011)", "note": "The whole screen tested about 360,000 compounds, of which about 25,000 (6.9%) were called active. The shares of active, inactive and inconclusive entries below differ from those in the screen. The call rests on the fitted dose curve; in most records, active means well fitted inhibition curve with a large enough effect; inconclusive means small, poorly fitted or top-dose-only effect; inactive means flat fitted curve, though single readings scatter. Where the call is inconclusive, the potency comes from a doubtful curve fit. Potency means the concentration at half of the fitted maximal effect; tags describe the fitted curve by direction and shape.", "data": [{"molecular_target": "Luciferin 4-monooxygenase (Photinus pyralis) (UniProt P08659)", "sequence (P08659 whole entry, looked up)": "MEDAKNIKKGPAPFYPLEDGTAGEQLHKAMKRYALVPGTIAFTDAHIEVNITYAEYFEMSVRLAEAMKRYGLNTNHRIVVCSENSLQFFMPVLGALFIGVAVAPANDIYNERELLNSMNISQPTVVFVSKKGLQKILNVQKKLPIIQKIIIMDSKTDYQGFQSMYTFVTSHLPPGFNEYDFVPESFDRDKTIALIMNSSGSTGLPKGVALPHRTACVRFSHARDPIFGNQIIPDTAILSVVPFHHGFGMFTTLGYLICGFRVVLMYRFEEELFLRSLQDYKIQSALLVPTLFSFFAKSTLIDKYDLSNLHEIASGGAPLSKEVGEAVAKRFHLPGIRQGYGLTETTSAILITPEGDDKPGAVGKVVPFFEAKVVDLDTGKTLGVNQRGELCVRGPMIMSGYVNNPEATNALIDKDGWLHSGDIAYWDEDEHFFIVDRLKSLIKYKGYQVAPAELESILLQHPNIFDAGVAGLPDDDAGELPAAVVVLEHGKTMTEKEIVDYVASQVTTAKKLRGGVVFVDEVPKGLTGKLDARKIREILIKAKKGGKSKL", "assay": "qHTS profiling assay for firefly luciferase inhibitor/activator using purifed enzyme and Km concentrations of substrates (counterscreen for miR-21 project); further: nearly all actives have a fitted effect of over 55% in size", "conditions": "purified FLuc, luminescence inhibition; series mostly up to 57.5 µM", "how_it_was_run": "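Biochemical qHTS of compounds, final roughly 60 µM downward over six points, against 10 nM purified firefly luciferase using Km concentrations of substrates (10 uM D-luciferin, 10 uM ATP) in Tris acetate pH 7.5 buffer; luminescence output.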", "values": [{"smiles": "Cc1c(NS(=O)(=O)c2ccc3c(c2)Cc2ccccc2-3)c(=O)n(-c2ccccc2)n1C", "Potency": "inconclusive: 10.7 µM [inhibitor, partial curve, poor fit]"}, {"smiles": "O=C(O)c1cc2c(=O)c3ccccc3oc2nc1C(F)(F)F", "Potency": "inactive"}, {"smiles": "CC(NC(=S)NCCN1CCOCC1)C12CC3CC(CC(C3)C1)C2", "note": "(stereo not given)", "Potency": "inactive"}, {"smiles": "Cc1cc(=O)oc2cc(OCC3CC(c4ccccc4)=NO3)ccc12", "note": "(stereo not given)", "Potency": "inconclusive: 15.1 µM [inhibitor, partial curve]"}, {"smiles": "CC(c1cccs1)N(Cc1ccco1)C(=S)Nc1ccccc1Cl", "note": "(stereo not given)", "Potency": "inactive"}, {"smiles": "Cc1nc2sc(C(c3ccccc3)N3CCN(C)CC3)c(O)n2n1", "note": "(stereo not given)", "Potency": "inactive"}, {"smiles": "CCCNC(=S)N1CCN(c2nc(-c3ccc(C)cc3)cs2)CC1", "Potency": "inconclusive: 16.9 µM [inhibitor, single point]"}, {"smiles": "CCOc1ccc(NC(=O)c2c(NCc3sccc3C)sc3c2CCCCC3)cc1", "Potency": "inconclusive: 21.3 µM [inhibitor, partial curve]"}, {"smiles": "CCOC(=O)N1CCc2c(sc(NCc3ccc(N(C)C)cc3)c2C(=O)Nc2ccc(OC)cc2)C1", "Potency": "inconclusive: 15.1 µM [inhibitor, partial curve]"}, {"smiles": "S=c1[nH]nc(-c2cc(-c3ccco3)[nH]n2)n1-c1cccc2ccccc12", "Potency": "inconclusive: 37.9 µM [inhibitor, partial curve, poor fit]"}, {"smiles": "CCn1cnc2sc(C(=O)Oc3ccc(Br)cc3)c(C)c2c1=O", "Potency": "inconclusive: 2.69 µM [inhibitor, partial curve, poor fit]"}, {"smiles": "O=C1NN(c2ccccc2)C(=O)/C1=C\\c1cccc(OC(=O)c2cccs2)c1", "Potency": "inconclusive: 21.3 µM [inhibitor, single point]"}, {"smiles": "O=C(O)COc1ccc(/C=N/NC(=O)Cc2ccc(Cl)cc2)cc1", "Potency": "inconclusive: 23.9 µM [inhibitor, partial curve]"}, {"smiles": "CCc1ccc2nc(SCC(=O)N(CC)CC)c(C#N)cc2c1", "Potency": "inactive"}, {"smiles": "Fc1ccc(CSc2nnc3ccc(-c4ccncc4)nn23)cc1", "Potency": "inactive"}, {"smiles": "N#Cc1c(NC(=O)CCC(=O)O)sc2c1CCCCC2", "Potency": "inconclusive: 30.1 µM [inhibitor, single point]"}, {"smiles": "CCOC1=C/C(=C/c2c(N)n3nc(S(=O)(=O)CC)sc3nc2=O)C=CC1=O", "Potency": "inconclusive: 37.9 µM [inhibitor, single point]"}, {"smiles": "Nc1nc(SCC(=O)Nc2cccc(Oc3ccccc3)c2)n[nH]1", "Potency": "inconclusive: 37.9 µM [inhibitor, partial curve, poor fit]"}, {"smiles": "COc1ccc(OCC(=O)Nc2ccc(C)cc2)cc1", "Potency": "inconclusive: 26.9 µM [inhibitor, partial curve, poor fit]"}, {"smiles": "Cc1ccc(CNC(=O)C(=O)NCCC2CCCCN2S(=O)(=O)c2cccs2)cc1", "note": "(stereo not given)", "Potency": "inactive"}, {"smiles": "COc1ccc(/C=C2\\Sc3ccc(C(=O)N4CCOCC4)cc3N(C)C2=O)cc1", "Potency": "active: 15.1 µM"}, {"smiles": "CC(C)(C)c1ccc(/C=N/NC(=O)C(=O)NCCCN2CCOCC2)cc1", "Potency": "inconclusive: 16.9 µM [inhibitor, partial curve]"}, {"smiles": "O=c1c(C(c2ccc(O)cc2)c2c(O)nc3n(c2=O)CCS3)c(O)nc2n1CCS2", "Potency": "inconclusive: 23.9 µM [inhibitor, partial curve, poor fit]"}, {"smiles": "CSc1ccc(CCNC(=O)c2ccc(CS(=O)(=O)c3ccc(Br)cc3)o2)cc1", "Potency": "inconclusive: 23.9 µM [inhibitor, partial curve, poor fit]"}, {"smiles": "CCOc1ncccc1C(=O)OCc1ccc(Cl)cc1", "Potency": "inconclusive: 30.1 µM [inhibitor, partial curve, poor fit]"}, {"smiles": "CC1CCCC(NC(=S)NC(=O)c2ccccc2Br)C1C", "note": "(stereo not given)", "Potency": "inactive"}, {"smiles": "CCCOc1ccc(C(=O)Nc2cccnc2)cc1", "Potency": "active: 10.7 µM"}, {"smiles": "COc1cc(/C=C/C(=O)OCc2cn3cc(Cl)ccc3n2)ccc1O", "Potency": "inconclusive: 37.9 µM [inhibitor, partial curve, poor fit]"}, {"smiles": "COc1ccc2oc(=O)c(-c3nc(C)cs3)cc2c1", "Potency": "inconclusive: 3.79 µM [inhibitor, partial curve]"}, {"smiles": "Cc1cn2c(=O)cc(COc3ccccc3NC(=O)c3ccc(C(C)(C)C)cc3)nc2s1", "Potency": "inconclusive: 2.69 µM [inhibitor, partial curve, poor fit]"}, {"smiles": "O=C(Nc1nc2c(Br)cc(Br)cc2c(=O)s1)c1ccco1", "Potency": "inactive"}, {"smiles": "O=C(CNC(=O)c1ccccc1F)N/N=C/c1cccs1", "Potency": "inconclusive: 23.9 µM [inhibitor, partial curve]"}, {"smiles": "COc1ccccc1N1CCN(S(=O)(=O)CCNC(=O)C2CC2)CC1", "Potency": "inactive"}, {"smiles": "COc1cc(Br)c(-c2sc(Nc3ccccc3)n[n+]2-c2ccc(F)cc2)cc1OC", "Potency": "inactive"}, {"smiles": "COc1cccc(-n2c(=O)[nH]cc(C(=O)Nc3ccc(NC(C)=O)cc3)c2=O)c1", "Potency": "inconclusive: 30.1 µM [inhibitor, single point]"}, {"smiles": "CC1CCc2c(C(=O)NCc3ccccn3)csc2C1", "note": "(stereo not given)", "Potency": "active: 21.3 µM"}, {"smiles": "[O-][n+]1c2cc(C(F)(F)F)ccc2c2n1CCN=C2c1ccc(Cl)cc1", "Potency": "inconclusive: 23.9 µM [inhibitor, partial curve, poor fit]"}, {"smiles": "Cc1ccc(N/C=C2\\CCCCC2=O)c(C)c1", "Potency": "inconclusive: 37.9 µM [inhibitor, partial curve, poor fit]"}, {"smiles": "Cc1ccc(-c2noc(-c3ccccc3F)n2)cc1", "Potency": "active: 0.849 µM"}, {"smiles": "Cc1noc(-c2ccc(N3CCC(C)CC3)c([N+](=O)[O-])c2)n1", "Potency": "active: 8.49 µM"}, {"smiles": "CC1CCCCC1NC(=S)NC(=O)c1sc2ccccc2c1Cl", "note": "(stereo not given)", "Potency": "inconclusive: 13.5 µM [inhibitor, partial curve, poor fit]"}, {"smiles": "O=S(=O)(Nc1ccc(F)cc1)c1ccc(NS(=O)(=O)c2cccs2)cc1", "Potency": "inactive"}, {"smiles": "Cc1ccc(OCCn2c(=O)oc3ccc(C)cc32)cc1", "Potency": "inconclusive: 37.9 µM [inhibitor, single point]"}, {"smiles": "COc1cccc(/C=C(\\C#N)c2nc3ccc(C)cc3[nH]2)c1OCC(=O)O", "Potency": "inconclusive: 37.9 µM [inhibitor, partial curve, poor fit]"}, {"smiles": "COc1cc(OC)c(OC)cc1/C=N/NC(=O)CSc1ccccc1F", "Potency": "inconclusive: 37.9 µM [inhibitor, partial curve, poor fit]"}, {"smiles": "COc1ccc(CNC(=O)c2ccc(-c3ccccc3)cc2)cc1", "Potency": "inconclusive: 2.39 µM [inhibitor, partial curve, poor fit]"}, {"smiles": "CCOc1ccc(NC(=O)CCCn2c(=S)[nH]c3ccsc3c2=O)cc1", "Potency": "inconclusive: 37.9 µM [inhibitor, partial curve, poor fit]"}, {"smiles": "COc1ccc(-c2cc3ncc(C(C)=O)c(C)n3n2)cc1", "Potency": "inconclusive: 1.9 µM [inhibitor, full curve]"}, {"smiles": "CC(=O)c1ccc(NC(=O)c2nc(-c3ccccc3)n(-c3ccc(Cl)cc3)n2)cc1", "Potency": "inconclusive: 19 µM [inhibitor, partial curve]"}, {"smiles": "O=C(O)C#Cc1cccc2ccccc12", "Potency": "inconclusive: 37.9 µM [inhibitor, partial curve, poor fit]"}, {"smiles": "C=CCN(CC=C)CCCOc1ccc(Br)cc1Cl", "Potency": "inconclusive: 37.9 µM [inhibitor, partial curve, poor fit]"}, {"smiles": "Cc1ccccc1OCCN1C(=O)C(=O)c2cccc(C)c21", "Potency": "inactive"}, {"smiles": "CC1CCN(c2oc(-c3ccc(COc4ccccc4)o3)nc2C#N)CC1", "Potency": "inactive"}, {"smiles": "COc1ccc(S(=O)(=O)Nc2nc3ccccc3nc2Nc2cccc(C(=O)O)c2)cc1", "Potency": "inconclusive: 23.9 µM [inhibitor, partial curve, poor fit]"}, {"smiles": "Cc1ccccc1OCC(=O)Nc1cccc(S(=O)(=O)NC2=NCCCCC2)c1", "Potency": "active: 16.9 µM"}, {"smiles": "CS(=O)(=O)c1cccc(-c2nnc(NC(=O)c3ccc(S(=O)(=O)N4CCCC4)cc3)o2)c1", "Potency": "inconclusive: 8.49 µM [inhibitor, partial curve, poor fit]"}, {"smiles": "O=C(NC(=S)Nc1cc(Cl)ccc1N1CCOCC1)c1ccc(-c2cccc(Cl)c2)o1", "Potency": "inactive"}, {"smiles": "CC(C)OCCCNC(=O)C(=O)Nc1ccc2nc3n(c(=O)c2c1)CCCCC3", "Potency": "inactive"}, {"smiles": "COc1ccc(C2=CSC(/N=C/c3ccc(F)cc3)=NN2)cc1", "Potency": "inconclusive: 10.7 µM [inhibitor, partial curve]"}, {"smiles": "O=C(Cc1ccccc1)NN1C(=O)C2C3C=CC(C3)[C@@H]2C1=O", "note": "(stereo not given in full)", "Potency": "inactive"}, {"smiles": "Cc1ccc(Cn2ccc(-c3cnc(-c4ccccc4)s3)n2)cc1", "Potency": "active: 10.7 µM"}, {"smiles": "Cc1cccc(-c2nc3nc(C)cc(NCc4ccccc4Cl)n3n2)c1", "Potency": "inconclusive: 23.9 µM [inhibitor, partial curve]"}, {"smiles": "COc1ccc2cc(C(=O)C3CCCN(C(=O)CCc4cnn(C)c4)C3)ccc2c1", "note": "(stereo not given)", "Potency": "inconclusive: 19 µM [inhibitor, partial curve]"}, {"smiles": "O=C1NC(=O)/C(=C/c2ccc(-c3cccc([N+](=O)[O-])c3)o2)S1", "Potency": "inconclusive: 26.9 µM [inhibitor, partial curve]"}, {"smiles": "O=C(Nc1ncc([N+](=O)[O-])s1)C1CC(=O)N(c2ccc(F)cc2)C1", "note": "(stereo not given)", "Potency": "inconclusive: 26.9 µM [inhibitor, partial curve, poor fit]"}, {"smiles": "Cc1nc(-c2ccc(S(=O)(=O)N3CCCCCC3)cc2)cs1", "Potency": "inconclusive: 16.9 µM [inhibitor, partial curve]"}, {"smiles": "O=C(COc1ccc(Br)cc1)N/N=C1\\SCC(=O)N1c1ccc(F)cc1", "Potency": "inactive"}, {"smiles": "O=C(NCc1ccccc1)C1CCC1", "Potency": "inactive"}, {"smiles": "CCCCCC(=O)NN1C(=S)N(c2ccc(OC)cc2)C(=O)C1CC(=O)Nc1ccccc1", "note": "(stereo not given)", "Potency": "inactive"}, {"smiles": "O=[N+]([O-])c1cccc(C(=Nc2ccccc2)NO)c1", "Potency": "inactive"}]}]}
